Laboratory results as given in PMC4336329 (PLoS ONE, 2015).
Out of some 310,000 compounds screened, about 14,000 (4.5%) showed an effect of 50% or more. The effect is printed as a negative number. The list shows a part of the results.

Each compound was assayed against human ether-à-go-go-related gene (hERG) potassium channel (human, UniProt Q12809) (assay: primary screen, population patch clamp on CHO cells stably expressing hERG).
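Also: peak tail current of the secondary pulse compared with the same well before compound.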

Sequence of human ether-à-go-go-related gene (hERG) potassium channel (Q12809 whole entry, looked up): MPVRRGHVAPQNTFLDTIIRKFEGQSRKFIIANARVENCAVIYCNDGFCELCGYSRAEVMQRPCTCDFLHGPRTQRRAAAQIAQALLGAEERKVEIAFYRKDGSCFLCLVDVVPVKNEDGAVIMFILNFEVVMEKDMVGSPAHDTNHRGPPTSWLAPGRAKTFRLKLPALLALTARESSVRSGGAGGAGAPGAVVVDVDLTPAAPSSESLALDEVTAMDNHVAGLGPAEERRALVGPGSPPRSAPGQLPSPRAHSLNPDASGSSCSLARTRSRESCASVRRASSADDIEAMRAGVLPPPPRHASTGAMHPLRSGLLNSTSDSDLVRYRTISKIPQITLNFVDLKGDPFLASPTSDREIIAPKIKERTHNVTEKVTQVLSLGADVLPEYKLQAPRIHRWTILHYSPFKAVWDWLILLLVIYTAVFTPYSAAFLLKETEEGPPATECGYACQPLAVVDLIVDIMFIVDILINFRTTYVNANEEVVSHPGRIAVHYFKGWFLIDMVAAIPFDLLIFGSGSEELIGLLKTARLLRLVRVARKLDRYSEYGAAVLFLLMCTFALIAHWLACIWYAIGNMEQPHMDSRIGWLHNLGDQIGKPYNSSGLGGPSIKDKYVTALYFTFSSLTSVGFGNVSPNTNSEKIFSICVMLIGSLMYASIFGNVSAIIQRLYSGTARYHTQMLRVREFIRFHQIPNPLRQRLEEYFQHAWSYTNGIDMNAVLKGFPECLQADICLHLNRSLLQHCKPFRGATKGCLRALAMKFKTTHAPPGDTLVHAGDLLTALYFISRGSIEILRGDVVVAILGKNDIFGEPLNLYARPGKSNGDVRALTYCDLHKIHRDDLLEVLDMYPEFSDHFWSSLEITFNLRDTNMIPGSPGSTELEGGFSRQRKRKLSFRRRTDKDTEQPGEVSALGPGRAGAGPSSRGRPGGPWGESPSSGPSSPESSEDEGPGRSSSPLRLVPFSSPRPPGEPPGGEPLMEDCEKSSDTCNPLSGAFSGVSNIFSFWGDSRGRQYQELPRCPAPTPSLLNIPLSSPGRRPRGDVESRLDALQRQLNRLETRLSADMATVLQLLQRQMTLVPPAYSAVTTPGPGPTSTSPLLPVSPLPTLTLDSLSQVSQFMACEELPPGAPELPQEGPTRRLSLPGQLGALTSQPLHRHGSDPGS

Compound	hERG current change (%, negative = inhibition) at 10uM
Cc1ccc2nc(N(CCCN(C)C)C(=O)c3ccc(S(=O)(=O)N4CCOCC4)cc3)sc2c1.Cl	-33.9%
NNC(=O)[C@@H]1C[C@@H]1c1ccccc1	-24.6%
COc1ccc(CN(C(=O)c2ccc(CN3CCOCC3)o2)C(C(=O)NCC2CCCO2)c2ccc(F)cc2)cc1 (centres unmarked)	-4.38%
Cc1ccc(C(=O)c2ccccc2C(=O)OCC(=O)N2CC(C)CC(C)C2)cc1 (centres unmarked)	-46.7%
COc1cccc(-c2ccc(SCc3ccccn3)nn2)c1	3.16%
CCOC(=O)C(NC(=O)N1CCCCC1)(c1ccccc1)C(F)(F)F (centres unmarked)	-0.306%
O=C(c1cc(COc2ccc(F)cc2Cl)on1)N1CCCC(OCc2cccnc2)C1 (centres unmarked)	-53.5%
COC(=O)c1ccc(C(=O)NC2CCCc3c2cnn3-c2ccccc2F)nc1 (centres unmarked)	3.02%
CCOC(=O)C1CCN(S(=O)(=O)c2cc3c4c(c2)C(C)C(=O)N4CCC3)CC1 (centres unmarked)	-7.08%
O=C(COc1ccccc1F)N1CCCc2ccccc21	4.15%
C#CCNC(=O)C1CCN(c2cc(C)nc(-c3ccccc3)n2)CC1	-40.7%
CCOC(=O)CSc1cc(=O)n(C)c2cc(Cl)ccc12	-1.12%
C[C@H](NC(N)=O)C(=O)Nc1ccc(OCc2ccccc2)cc1	6.97%
COc1cc(NC(=O)C2=CC(c3ccco3)=NS(=O)(=O)N2C)cc(OC)c1OC	11.2%
CN(C(=O)c1cccs1)c1ccc(OCC(=O)N2CCC(C(N)=O)CC2)cc1	30%
CC(C)OC(=O)c1cccc(C(=O)Nc2cccc(NC(=O)c3cccc(C(=O)OC(C)C)n3)n2)n1	23.6%
Cc1noc(C)c1S(=O)(=O)N(CC(=O)Nc1ccc2c(c1)OCCO2)c1ccc(C(C)C)cc1	3.42%
Cc1ccc(-c2nn(CC(=O)NCC3CCCO3)c(=O)c3ccccc23)cc1 (centres unmarked)	-30.5%
C/C(=N\Nc1cc(N2CCOCC2)ncn1)c1cccc([N+](=O)[O-])c1	4.5%
CCOC(=O)CC1=NN(c2ccccc2)C(=O)C1	19.4%
O=C(Cn1ccc(NC(=O)OCc2ccccc2)nc1=O)NCC1CCCO1 (centres unmarked)	16.7%
CCc1ccc(C(=O)Nn2cnc3ccccc3c2=O)cc1	-12.1%
Cc1nn(C)c(Cl)c1S(=O)(=O)N1CCC(CO)(CCc2ccccc2)CC1	-21.1%
